Measurements from PubChem BioAssay AID588855 (National Center for Advancing Translational Sciences (NCATS), 2011).
About 5,000 (1.2%) of roughly 410,000 compounds were called active. This list was built around the results that the source calls inconclusive (neither active nor inactive); the mix of calls is not that of the screen. Calls follow the shape of the dose curve; as a rule, active = well fitted inhibition curve with a large enough effect; inconclusive = small, poorly fitted or top-dose-only effect; inactive = no such curve, though single readings can be large or run the other way. Where the call is inconclusive, the potency comes from a doubtful curve fit.
% is scaled to controls: 0 for no effect and ±100 for the full control effect; potency is read from the fitted curve at half-maximal effect; tags tell the direction and shape of the fitted curve.

Assay: qHTS for Inhibitors of TGF-b; also: nearly all actives have a fitted effect of over 65% in size
Settings: HepG2 CAGA-GFP TGF-b/SMAD3 reporter, GFP fluorescence, 18 h, TGF-beta stimulated, 500 pg/mL final; series mostly up to 46.1 µM; activity, negative = inhibition: at the top concentration
In short: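 Inhibition of TGF-beta-driven CAGA-GFP reporter expression in HEPG2 cells is measured by cellular GFP fluorescence after 18 h stimulation with 500 pg/mL recombinant TGF-beta in 1% FBS medium at 37 degrees C.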
With CC1CCC(C(C)C)C(OC(=O)C[n+]2cc(-c3ccc(Cl)cc3)n3c2CCC3)C1 (centres undefined) the Potency was active: 11.2 µM.
With Cc1ccc(NC(=O)CN2C(=O)COc3ccc(S(=O)(=O)N4CCCCCC4)cc32)cc1C the Potency was inconclusive: 11.2 µM [inhibitor, partial curve, poor fit].
With CCc1nc2ccc(C(=O)N3CCNC(=O)C3)cn2c1N(C)CCC(C)C the “activity, negative = inhibition” value was inactive: -11%.
For COc1ccccc1-c1cn[nH]c1-c1ccc(OCc2ccccc2)cc1O, the Potency was inconclusive: 22.4 µM [inhibitor, single point].
In the case of CS(=O)(=O)N(Cc1ccc(C(=O)Nc2ccccc2Sc2ccccc2)cc1)c1ccccc1, the Potency is reported as inconclusive: 35.5 µM [inhibitor, single point].
For COC(=O)CN1C(=O)[C@H]2[C@@H](c3ccc(C)o3)N3C(=O)CN(CC4CC4)C(=O)[C@@]3(Cc3ccccc3)[C@H]2C1=O, the “activity, negative = inhibition” value was inactive: 7.77%.
For COc1ccc(N(CC(=O)Nc2ccc(Cl)cc2)S(=O)(=O)c2c(C)n[nH]c2C)cc1, the Potency was inconclusive: 20 µM [inhibitor, single point].
In the case of COc1ccc(-c2cn3nc(N4CCC(C(=O)Nc5cccc(OC)c5)CC4)sc3n2)cc1, the “activity, negative = inhibition” value is reported as inactive: 0%.
For CCOc1ccc(NC(=O)CN(C)C(=O)c2c(-c3c(F)cccc3Cl)noc2C)cc1OCC, the “activity, negative = inhibition” value was inactive: -7.38%.
In the case of CCC(CO)Oc1cc(NCc2ccccc2)c2ncn(C3CCCC3)c2c1 (centres undefined), the Potency is reported as inconclusive: 35.5 µM [inhibitor, single point].
With COC(=O)c1ccc(NC(=O)CC2C(=O)N(c3ccc(F)cc3)C(=O)N2Cc2ccc(OC)cc2)cc1 (centres undefined) the Potency was inconclusive: 22.4 µM [inhibitor, single point].
For CC(C)CC1C(=O)N(Cc2cn(CCC3OCCO3)nn2)CCS(=O)(=O)N1Cc1ccc(-c2ccc(Cl)c(Cl)c2)cc1 (centres undefined), the Potency was active: 11.2 µM.
With Cc1ccc(C)c(Cn2c(=O)n(Cc3ccc4c(c3)OCO4)c(=O)c3oc4ccccc4c32)c1 the “activity, negative = inhibition” value was inactive: -16%.
For CC(C)(C)C1CCc2c(sc(NC(=O)C3CC=CCC3C(=O)O)c2C#N)C1 (centres undefined), the Potency was inconclusive: 12.6 µM [inhibitor, partial curve, poor fit].
In the case of CCc1cccc(NC(=O)c2cnc(SC)nc2-c2ccccc2)c1, the Potency is reported as inconclusive: 20 µM [inhibitor, single point].
For CCCNC(=S)N1CCC(NC(=O)c2cccc(C)c2)CC1, the “activity, negative = inhibition” value was inactive: 3.68%.
For Cc1ccc(CONC(=O)c2cccc([N+](=O)[O-])c2)cc1, the “activity, negative = inhibition” value was inactive: -7.58%.
With COc1ccccc1N1CCN(C(=O)Cc2ccc(Cl)cc2)CC1 the “activity, negative = inhibition” value was inactive: -23.2%.
With COc1ccc(/C=C/C(=O)OCC(=O)NCc2ccccc2)cc1OC the “activity, negative = inhibition” value was inactive: 8.05%.
For COc1ccc(N/C(N)=N/c2nc(C)c(Cc3ccccc3)c(=O)[nH]2)cc1, the Potency was inconclusive: 28.2 µM [inhibitor, single point].
For Cc1ccc2[nH]cc(C(=O)CCl)c2c1, the Potency was inconclusive: 35.5 µM [inhibitor, single point].
With CCN(Cc1ccccc1)C(=O)CCCOc1ccccc1 the “activity, negative = inhibition” value was inactive: -0.491%.
With Cc1c(Cl)sn(-c2ccc(Cl)cc2)c1=O the Potency was inconclusive: 35.5 µM [inhibitor, single point].
For CCC(CC)C(=O)N(C)c1c(C)nc2c(OCc3ccc(Cl)cc3Cl)cccn12, the Potency was inconclusive: 35.5 µM [inhibitor, single point].
In the case of CN(C)CCC(=O)c1ccc2c(c1)OCO2, the Potency is reported as inconclusive: 22.4 µM [inhibitor, partial curve, poor fit].
In the case of COc1ccc(C2C=C(C34CC5CC(CC(C5)C3)C4)NC(=S)N2)cc1 (centres undefined), the Potency is reported as inconclusive: 20 µM [inhibitor, partial curve, poor fit].
In the case of CCCCCCN1C[C@@H](O)[C@H](n2cc(C3CC3)nn2)C[C@@H]1c1ccc(Cl)cc1, the Potency is reported as inconclusive: 35.5 µM [inhibitor, single point].
For COc1ccc(NC(=O)c2cc(-c3ccc4c(c3)OCO4)on2)cc1, the Potency was inconclusive: 35.5 µM [inhibitor, single point].
For CC(C)NC(=S)NNc1ncnc2sc3c(c12)CC(C)(C)OC3, the “activity, negative = inhibition” value was inactive: -17.1%.
For Cc1cccc(NC(=O)c2sc3nc4c(cc3c2N)CN(Cc2ccccc2)CC4)c1, the “activity, negative = inhibition” value was inactive: 9.87%.
With CC12CCC(C(=O)Nc3ncc([N+](=O)[O-])s3)(OC1=O)C2(C)C (centres undefined) the “activity, negative = inhibition” value was inactive: -11.2%.
In the case of Cc1cccc(NC(=O)Cc2ccc(-c3ccccc3)cc2)n1, the Potency is reported as inconclusive: 22.4 µM [inhibitor, single point].
With O=C(c1cc2c(s1)-c1ccccc1OC2)N1CCCC1 the Potency was inconclusive: 35.5 µM [inhibitor, single point].
With COCCCn1c(SCCc2ccccc2)nc2cc(OC)c(OC)cc2c1=N the Potency was inconclusive: 35.5 µM [inhibitor, single point].
